Source: the supplement of paper PMC11417369
This is one part of the list.

What follows are sequences tested on PfAP2-HC AP2 domain (GST-tagged) (assay: gcPBM binding intensity (ln(normalized median fluorescence intensity)); higher = stronger DNA binding).
Summary of the method: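 The binding buffer was 1× PBS containing 1% milk, 0.2 mg/ml BSA, 0.5% salmon testes DNA and 0.03% Triton X-100. In it, GST-tagged P. falciparum DNA-binding domains expressed in E. coli were applied for 1 h to an Agilent 4 × 180k array of primer-extended double-stranded 36-bp intergenic genomic probes plus negative controls. Binding intensity, read with Alexa488 anti-GST antibody and a 488 nm scan, is the highest Masliner-normalised natural-log median intensity across replicate spots of either probe orientation.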

Row | Sequence | gcPBM binding intensity (ln)
1 | ATATACACACAAAAACGTACACATATATATATGTAT [XGTACX_site2673] | 10.4
2 | GGTATAATAATATATAGTACACACAAAAATGGAAGT [XGTACX_site7058] | 10
3 | ACAATAAAGAAGTGTACACATATATCAATAAAAAAA [CACACA_site5228] | 9.88
4 | AAAATAATATTTAATACACACATAATTTTAATATAA [CACACA_site4588] | 9.75
5 | TACTTATATTATTTTATTATTAAATTTAAAACGAAA [CACACA_negctrl_site736] | 9.14
6 | AAAAAAAAAAAAAAAAAAAAAAAAATATATAATTTA [CACACA_negctrl_site583] | 9.25
7 | CAATCATGGGTTTACACACACATGCATGTGAAAATT [CACACA_site1349] | 9.94
8 | CATATTAAAAATTATTGTACATATTAATGAATATAA [XGTACX_site2734] | 9.52
9 | GATGATAATAAATTTATATATAATATTATCTTATGT [GTGCAC_negctrl_site672] | 9.62
10 | ATTTTTGCAGTAATTAAATAGACAAAATGAAAAAAA [CACACA_negctrl_site1537] | 9.63
11 | AACCAAACAAATAAACGTACAAACATTACATATATT [XGTACX_site2265] | 9.75
12 | TAATAATAAAAATAAACACACATATATCTGTATTTA [CACACA_site5572] | 9.74
13 | ATATATATATATATAGTGCATAAAATAAGTTTCTAA | 9.72
14 | TATTTATAAACATACGCACACATTAAAATATATATA [CACACA_site6051] | 9.88
15 | GGTGGAAACAATTACACACACACAAAAAAAAAAAAA [CACACA_site3208] | 10.2
16 | AATCACAACAGACACACACACAAAAAAAAAAAAAAA [CACACA_site1442] | 10.1
17 | ATATGTTATATAAATATATATATATATATATATATA [TGCATGCA_negctrl_site594] | 9.42
18 | TTAATATAATAGAAGTGTACACACATATTTATGTGT [XGTACX_site6672] | 10.1
19 | TAAAGAAAAAGAGAATGTACATGAGAAAAGTATACT [XGTACX_site7472] | 9.79
20 | AGAAAAAAAAAAAAATGTACAGACTTTTTCTTATAA [XGTACX_site6481] | 9.37
21 | AAAAAAGATAATTATGCACACACACCCACCCACCCA [CACACA_site8825] | 10.5
22 | TTTTTATAAATACACATAAATATATATATATATATA [TGCATGCA_negctrl_site393] | 9.44

Row | Sequence | gcPBM binding intensity (ln)
23 | ACACAAAAAAATATATATATATATATATATATGTTA [CACACA_negctrl_site55] | 9.72
24 | AAAAAAAAAAAAAAATGTACATTTTGAAAGGATATA [XGTACX_site8217] | 9.63
25 | ATGCATTATTAGAATACACACCATACGCATATTTAT [CACACA_site4319] | 9.86
26 | TTTTTTTTTCTTTCTTTCTTTTGTAAAAACCTCAAA [CACACA_negctrl_site723] | 9.37
27 | ATATGTATATATAAAAGTACGCGTAAAAAAAAAAAA [XGTACX_site5377] | 10.1
28 | TATAAACCAATGAACACACAAACATATATATATATA [CACACA_site3168] | 10.4
29 | TCTTTTTATATTTATTGTACATAAAAAATAAAACAT [XGTACX_site4073] | 9.47
30 | TAAATATATAAATACACACACATACACAAAAAAAAA [CACACA_site5890] | 10.9
31 | TATACACCCTAAAATACACACACACCCACCCATATA [CACACA_site9380] | 10.3
32 | ACAACATTTCTCAAATGTACATAATATAATTTATAT [XGTACX_site3224] | 9.64
33 | TATTAATTCTTAAATTTTTTTTTTTAATTCCTAGGA [CACACA_negctrl_site879] | 9.03
34 | GCCTTCCTTCTAAATGCACACGGAAAGTATAAATGT [CACACA_site8797] | 9.83
35 | GAATGAATCAATGTTTGTACTCAACAAATTATAAGG [XGTACX_site5122] | 9.58
36 | CAATAATTTTTTAAATGTACTTTATTATAATTTAAT [XGTACX_site135] | 9.48
37 | TATATATAATACAGTATGCACTATTTTTATTAAAAA | 9.41
38 | TTTTCTTACATCTTATAAAAAAAAATATATATTATA [GTGCAC_negctrl_site118] | 9
39 | GTCTAACAACCAAACGCACACACACTAATAAAAAAA [CACACA_site8026] | 10.3
40 | TTATATACATAAAAATGTACTTTTTATAAAATATAT [XGTACX_site8281] | 9.51
41 | AAGTTAGTATTCTGCTGTACTTCTATATATAAGTGT [XGTACX_site7678] | 9.61
42 | ATATATCAAAAATGATGACATAAATATATTAATTTA [TGCATGCA_negctrl_site259] | 9.62
43 | ATAAAATAATCTTATGCACACCAAAAATTTATATAA [CACACA_site8332] | 9.69
44 | TTTTTGTAAAATAAACGTACAAAACAATTGTTCATT [XGTACX_site6537] | 9.45

Row | Sequence | gcPBM binding intensity (ln)
45 | TATCTGTATGTATGTACACACAAAAAATGGAATATA [CACACA_site5947] | 9.92
46 | TATTTTAAAACAAAAATATAATTTCATAAAAATATA [CACACA_negctrl_site394] | 9.23
47 | TAATATATATATTTATGTACATATAAATTTTCTCCT [XGTACX_site4496] | 9.57
48 | TTTTATTCCGTTTCAAAATAAGAAAAAAAAAAAAAT [CACACA_negctrl_site1199] | 9.1
49 | TACTTCTCATTTGTTGTTGTATTTTAGGCATACCCT [XGTACX_negctrl_site385] | 9.66
50 | TTTCACACTATTTCATGTACACATAAAATTATATAT [XGTACX_site8692] | 9.71
51 | TAAATATAATAAAAGTGTACTTACACTTACATATAA [XGTACX_site1206] | 9.76
52 | AACAGATAAAAGGGTACACACATATATACATGTACA [CACACA_site225] | 10.1
53 | ATATAATAAGGTTAAGCACACATATTACATATATAA [CACACA_site9110] | 9.88
54 | TTGTATATATTTCCTTGTACGTAATAATTCTTATTG [XGTACX_site3938] | 9.74
55 | AAGGATAATAGGTACACATGCAATATTCATATATAC [TGCATGCA_site523] | 9.86
56 | CTTATATATACGTGCACACATATATATAAGATATAT [CACACA_site1752] | 9.69
57 | AAAAATATAAATGACACACACTTAAAAACAAAGAAA [CACACA_site4540] | 10.2
58 | ATTTAAAAAAAAAAAAATAAATAACTTGAAAAACAA [GTGCAC_negctrl_site318] | 9.44
59 | TGTTTTTCATAGTGCACACATAACCAAAAATAGTAT [CACACA_site3150] | 9.67
60 | ACGTATATTTTTACATGTACATATGTAAAAAATTTT [XGTACX_site4587] | 9.57
61 | TTATGATAATTTTGCACACACTTAGGAAAAATTATG [CACACA_site4949] | 9.79
62 | AAATAATATATATACACACACACATATATATATACA [CACACA_site554] | 10.6
63 | AAATACTGTACAAAGGTGCATAAAAAGTGGGGCATA | 10.2
64 | TCAAAAGAAATAAAAACATGCATAAAAGTAAAAATA [TGCATGCA_site832] | 9.63
65 | AATAATGAAAAATCAAATAACCTAAATTACAACTGT [XGTACX_negctrl_site65] | 9.69
66 | TTTTATTTATCATACACACACAGAAAAAAAAAAAAA [CACACA_site158] | 9.9

Row | Sequence | gcPBM binding intensity (ln)
67 | GAATGTTTATTATATGCATGTTATATATATGAATAT [TGCATGCA_site4] | 9.65
68 | CCTTTCCTTTTATAAGTGCATATAACAAATGTATAC [GTGCAC_site9872] | 9.64
69 | ATTAAAGTTATAAATTCACACATGTAAATGTATTTA [CACACA_site5279] | 9.58
70 | ATATATTATATATGCGCACACACGAATTTTTTTTTT [CACACA_site2393] | 10.1
71 | GTTATATATGATGGAAGCACTTGGAAGAGGGAAATA [CACACA_negctrl_site1831] | 9.64
72 | GATAAATATTTAATATGTACATATATTATATATATA [XGTACX_site117] | 9.66
73 | AAAAATAAAAAAATAAAAAATAAAAAAATAAAAAAT [CACACA_negctrl_site1425] | 9.65
74 | TATATACACACCGTGTGTACATATACATTAACTGAA [XGTACX_site7120] | 10
75 | TATATATACATACGTACACACAAATATTAAAATATA [CACACA_site1951] | 9.79
76 | TCAAAATTGCTTTGTTGTACTAATAAAATTTATTAC [XGTACX_site1121] | 9.54
77 | TATCTGTAAACATATTCACACACATAAATTCGCATA [CACACA_site8557] | 9.97
78 | TACACTAATGACAGTTGTACTTTTATTCGATAGAAT [XGTACX_site738] | 9.51
79 | TATATATATATAATATGTACATATATACATGCCTTG [XGTACX_site2791] | 9.67
80 | ACTTTTTTTTTGTGTGTGCACTCGATTATATACATA [GTGCAC_site9846] | 10.2
81 | TCGAAAATGACGAATGGTACAGTATGTATAAAAATA [XGTACX_site1258] | 9.64
82 | ATGGCATAAATATATGCACACACAAAAAAAAAAAAA [CACACA_site7902] | 9.94
83 | AAAAAGAAAAAGAGCACACAAAAATATTTAACCTTT [CACACA_site2747] | 10.1
84 | TTTCTTTTTTTTTGAAGTACATAAAAATATAAAAAA [XGTACX_site311] | 9.18
85 | ATATATATATGTATGTATATATATATATATATGTTT [CACACA_negctrl_site248] | 9.74
86 | AATATTATAAAATATTGTACTTAAAAAATTATTAAA [XGTACX_site2469] | 9.53
87 | TAAATTTTTTCTTTTTGTACATATTTTAAAAATGTT [XGTACX_site7526] | 9.53
88 | TATAAATTTATACCAGTGCATTTTGAAATATATATA | 9.5
